# Data as given in the supplement of paper PMC3334620.
# The full ranking holds about 33,000 sequences; the median of “E-score (-0.5 to 0.5)” is about -0.012, and the highest 2% start at about 0.27. Some of the results follow.
# Target: T1, Vhr1 (UniProt P40522)
# T1 sequence: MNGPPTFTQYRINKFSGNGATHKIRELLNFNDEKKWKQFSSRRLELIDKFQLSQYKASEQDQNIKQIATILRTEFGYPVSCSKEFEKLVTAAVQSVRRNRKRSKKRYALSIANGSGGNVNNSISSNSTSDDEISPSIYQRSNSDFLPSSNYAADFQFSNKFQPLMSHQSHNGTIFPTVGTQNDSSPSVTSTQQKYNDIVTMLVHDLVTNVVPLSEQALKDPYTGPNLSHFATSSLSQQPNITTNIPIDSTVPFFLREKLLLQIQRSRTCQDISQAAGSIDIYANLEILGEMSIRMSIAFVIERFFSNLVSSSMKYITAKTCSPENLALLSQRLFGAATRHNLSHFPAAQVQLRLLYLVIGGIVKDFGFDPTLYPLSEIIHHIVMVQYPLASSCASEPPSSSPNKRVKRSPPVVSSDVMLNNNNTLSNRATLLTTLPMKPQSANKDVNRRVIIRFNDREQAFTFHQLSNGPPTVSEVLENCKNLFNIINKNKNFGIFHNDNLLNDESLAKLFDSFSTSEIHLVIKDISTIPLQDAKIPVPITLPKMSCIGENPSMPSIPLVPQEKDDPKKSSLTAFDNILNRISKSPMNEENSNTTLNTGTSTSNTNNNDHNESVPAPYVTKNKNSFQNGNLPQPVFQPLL
# Test: PBM E-score (8-mer binding enrichment) (E-score (-0.5 to 0.5)); higher = stronger / more preferred TF binding; most listed sequences are background and not binding sites
# Settings: protein concentration: 200 nM; construct: GST-full length
# Outline: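 GST-tagged yeast TFs (full-length or DNA-binding domain) were made by PURExpress in vitro transcription/translation and applied at about 100-200 nM to universal all-10-mer Agilent arrays. The arrays were made double-stranded by primer extension, on fresh or once-stripped slides. Bound protein was detected with fluorescent anti-GST, and scans were normalised with masliner. Each ungapped eight-base word, pooled with its reverse complement, received an E-score (modified Wilcoxon-Mann-Whitney statistic) from the Universal PBM Analysis Suite.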
row,Sequence,PBM E-score
1,CAACTCTA,-0.152
2,GAATGTAC,-0.00977
3,CCCCATTA,-0.0673
4,ATTTACAC,0.0629
5,CCGGCCAG,-0.162
6,AGATCTTC,-0.07
7,GATAGAAC,-0.0917
8,ATTGCTGA,-0.0567
9,ATCCGGAC,-0.192
10,CTGTAATA,0.175
11,ATAAAAAT,-0.0282
12,CCCGGGGA,-0.0716
13,CTCGAGCC,0.069
14,AAGAACGC,-0.195
15,ATTGGTTG,0.159
16,ATACTAGC,0.183
17,GATGACTA,0.447
18,CAATGTAC,-0.134
19,GGATCAAC,-0.0769
20,GATTTCCC,-0.0496
21,CGGCTAAC,-0.0152
22,ATTAGGAA,-0.143
23,AACGTTAA,-0.16
24,AGCGGACT,-0.0924
25,CCGCCTAA,-0.119

row,Sequence,PBM E-score
1,GCTGCCGA,-0.0919
2,GTACTCTA,-0.0423
3,ACAACGCT,0.0591
4,AGTAGGTA,-0.0623
5,CTTTCGCC,-0.196
6,GAACACTC,0.088
7,GATCGAAA,-0.0319
8,GAAGATTC,0.0133
9,AAGAGTTC,-0.179
10,GAAAGTTC,-0.349
11,ATAAGGTA,-0.00465
12,TCCTTCGA,-0.111
13,AGCTTGGA,-0.231
14,ACAGGTCC,-0.195
15,AATATCAA,0.0811
16,CGGTAGAC,-0.00049
17,AATTGCGA,0.0284
18,AACGTCCT,-0.14
19,AGACAAGA,0.0549
20,TAACACAA,0.0935
21,AGGATCCA,0.0343
22,AAGCTCAT,-0.0433
23,CCTCACCC,0.0394
24,GCTCTCAC,-0.291
25,GCAAATCA,-0.0172

row,Sequence,PBM E-score
1,ATATCGTC,-0.0603
2,AACCTCTT,0.0249
3,AACGCTAC,-0.205
4,CCGAGAAC,-0.0935
5,ACGCTGCA,-0.103
6,AGGTCCGG,0.0135
7,ACAGAACG,-0.0406
8,AAGTCCGC,0.00158
9,CTCCGCTA,0.00749
10,GCTACCGA,0.0861
11,CGCCTGCC,0.00566
12,ACCTTGTA,-0.035
13,CACGAAAA,-0.0528
14,GATCCCTA,-0.0993
15,GTCGGTGA,0.0643
16,AGGCCTAA,-0.0116
17,AACTCCCA,0.0624
18,ACACCTTG,0.0416
19,CCCCTGTC,-0.0862
20,CCGTTTTC,0.0544
21,ATAATATG,0.206
22,CGCTATCA,0.0527
23,GGATCGAA,-0.0912
24,CAACCGTA,-0.281
25,AAATAGCG,-0.0694

row,Sequence,PBM E-score
1,GACGCACC,0.106
2,CAAAACTA,0.0554
3,AAGCTGCC,-0.0207
4,AATCCTCA,-0.00545
5,CCGTCGTA,-0.0594
6,CCTTAGAG,-0.233
7,CCTATTCA,-0.0676
8,AACTCCCC,0.0106
9,TCTACTCA,0.112
10,CCGTAATC,-0.0313
11,CACTTGGC,-0.141
12,TTATAAAA,-0.0537
13,GAACTGTC,-0.0201
14,ACTCGCAG,0.158
15,AGGCGATG,0.149
16,CGAACTCG,0.0311
17,CCTCAGCA,-0.0472
18,GAGAGGAC,-0.0127
19,TCTCCACA,-0.0495
20,CACTGCGG,0.213
21,CAGAGGCC,-0.0619
22,AACAATGC,0.216
23,AAGGACCC,-0.13
24,AAGACCCT,-0.0794
25,GAAAATCC,-0.162

row,Sequence,PBM E-score
1,ACGAGATA,-0.143
2,GTATGGAC,0.0175
3,GCGCACGA,0.0591
4,GGATATCA,-0.079
5,GCTCAATA,0.0628
6,CCAGATAC,0.0239
7,CAGAATAA,0.0312
8,AGGCCTAG,-0.177
9,AGTTCAAA,-0.133
10,AACCCTAT,0.105
11,GCATTATA,-0.0873
12,ATAAATAG,-0.0761
13,CTGCAGAC,0.0131
14,GCTCGGCA,0.0799
15,CTGAGTAC,0.175
16,CCGGCATA,-0.094
17,CGTCTAAA,-0.184
18,GGTGCGAC,0.17
19,CAATCTAC,0.0645
20,CGTGGTTC,0.173
21,CACCCGTG,0.201
22,AATTCCCC,-0.00371
23,CTTTAGAC,-0.0927
24,GTCTATTA,0.0479
25,ACTGCCCC,-0.0425

row,Sequence,PBM E-score
1,AAGTTCGC,-0.254
2,TCAGTAGA,-0.00045
3,AAGTACAT,0.143
4,GGAATGAA,0.0761
5,TCCTGTCA,0.0334
6,CTAGGAAG,0.0291
7,AAGTTAGC,-0.244
8,ATATTCCG,0.0138
9,CGCGGAGC,0.0201
10,CATAGTGC,0.0414
11,GGTTTGAA,-0.0872
12,GCGGCACC,0.0617
13,CGCTCTTA,-0.033
14,CTGACCCA,0.0712
15,CCCGTTGC,-0.157
16,GCTGCGAC,-0.0289
17,GCAAGTTA,-0.0186
18,TGTGCACA,-0.272
19,CAACGTAG,-0.124
20,ATACGACG,-0.0237
21,GCAGACGA,0.105
22,CCGTTAGA,-0.163
23,CGAACAAG,-0.162
24,ATTAGAGA,-0.169
25,GCATGATA,0.0954

row,Sequence,PBM E-score
1,CCAGTCAG,0.0854
2,ACCACTAA,0.0612
3,ACGACAAT,0.0908
4,AAGGTGGT,-0.0586
5,ACACCCGT,0.0273
6,GTCCGAAA,-0.0328
7,CGCAAGGA,-0.0519
8,GGGCTATA,-0.156
9,AGTGTGTC,0.129
10,AGCCCGTC,-0.17
11,AAAACGAA,-0.0683
12,CGGATGCC,-0.13
13,AATATTGG,0.0108
14,AATGGTTG,0.0415
15,AGGCCGCG,-0.126
16,CAAACTCG,0.102
17,AGTATGAG,0.0941
18,CGTTAGAC,-0.203
19,ATTCGCAC,0.0743
20,GATAGAGA,-0.129
21,ACCGGAAT,-0.073
22,CAAATGAG,-0.248
